Experimental data as given in PubChem BioAssay AID624417 (National Center for Advancing Translational Sciences (NCATS), 2012).
In all, about 410,000 compounds went through this assay and about 6,400 (1.6%) were called active. The shares of active, inactive and inconclusive entries below differ from those in the screen. Calls come from the whole dose curve; as a rule, active = well fitted inhibition curve with a large enough effect; inconclusive = small, poorly fitted or top-dose-only effect; inactive = no such curve, though single readings can be large or run the other way. Potencies of inconclusive entries are left out as doubtful fits.

Target: Glucagon-like peptide 1 receptor (Homo sapiens) (UniProt P43220)
Chain of UniProt P43220 (P43220 whole entry, looked up): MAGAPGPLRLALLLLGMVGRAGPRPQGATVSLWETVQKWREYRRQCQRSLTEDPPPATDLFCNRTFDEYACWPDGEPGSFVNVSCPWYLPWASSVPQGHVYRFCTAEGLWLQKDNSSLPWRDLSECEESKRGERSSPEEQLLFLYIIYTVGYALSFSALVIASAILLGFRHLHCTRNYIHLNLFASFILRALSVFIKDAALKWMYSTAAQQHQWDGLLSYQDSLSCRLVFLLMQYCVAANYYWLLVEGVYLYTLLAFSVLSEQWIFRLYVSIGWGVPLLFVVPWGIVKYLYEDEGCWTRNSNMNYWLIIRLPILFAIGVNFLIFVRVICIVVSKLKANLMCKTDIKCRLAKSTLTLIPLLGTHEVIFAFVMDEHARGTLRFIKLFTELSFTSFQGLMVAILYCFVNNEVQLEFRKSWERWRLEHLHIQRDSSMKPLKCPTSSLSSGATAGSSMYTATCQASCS
Assay: qHTS of GLP-1 Receptor Inverse Agonists (Inhibition Mode); note: nearly all actives have a fitted effect of over 55% in size
Settings: HEK293 GLP-1R CRE-luciferase, luminescence, 24 h, GLP-1R form is constitutively active; activity change, negative = inhibition: at 38.3 µM (top of the series) unless noted
Method in brief: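 Using stably transfected HEK293 (constitutively active GLP-1R, cAMP-luciferase reporter), compounds were incubated 24 hr and luciferase measured by luminescence.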
% is set by controls: 0 for no effect and ±100 for the full control effect; potency is the fitted concentration of half-maximal effect; tags give direction and shape of the fitted curve.

Compound | Potency | activity change, negative = inhibition
C=CC[C@@H](CC(=O)N[C@@H](CO)Cc1ccccc1)C(=O)N[C@@H](C)COC(=O)[C@@H](CC=C)Cc1ccc(F)cc1 | inconclusive [inhibitor, single point] | 
Cc1ccc(C23CC4CC(CC(NC(=O)NCCN(C)C)(C4)C2)C3)cc1 | inconclusive [inhibitor, full curve] | 
CN1C(=O)C(CC(=O)Nc2ccc(Cl)cc2)N(Cc2ccco2)C1=S (configuration not stated) | inconclusive [inhibitor, single point] | 
CCCCOC(=O)c1ccc(NC2=NS(=O)(=O)c3ccccc32)cc1 |  | inactive: -12.6%
O=C(N/N=C\c1cc(Br)c(Br)o1)C1COc2ccccc2O1 (configuration not stated) | inconclusive [inhibitor, partial curve, poor fit] | 
Cc1oc(-c2ccccc2)nc1C(=O)OCC(=O)NC(C)c1ccccc1 (configuration not stated) |  | inactive: -8.73%
Cc1nc2scc(-c3ccc(C(C)(C)C)cc3)c2c(=O)n1N | inconclusive [inhibitor, single point] | 
CCOc1ccc2nc3c(cc2c1)CN(CCCO)C(=NCCOC)S3 | inconclusive [inhibitor, full curve, poor fit] | 
O=C(Nc1ccc(Cl)c(Cl)c1)OCCNC(=O)c1ccncc1 | inconclusive [inhibitor, single point] | 
Cc1[nH]nc2c1C(c1ccsc1)C1=C(CC(C)(C)CC1=O)N2 (configuration not stated) | inconclusive [inhibitor, partial curve, poor fit] | 
C#Cc1ccc(CN2CCC(Oc3cc(C(=O)NC4CC4)ccc3OC)CC2)cc1 |  | inactive: -3.84%
CCN(CC)C(=S)Nc1ccc(Cl)c(Cl)c1 | inconclusive [inhibitor, single point] | 
COc1ccc(NC(=O)C2=CC(c3ccc(OC)cc3)=NS(=O)(=O)N2C)cc1 | inconclusive [inhibitor, single point] | 
Cc1cc(NC(=O)CSc2nc3c(c(=O)n2-c2ccc(Br)cc2)SCC3)no1 | inconclusive [inhibitor, partial curve, poor fit] | 
Cc1sc2ncn(CC(=O)NCC(=O)N3CCN(c4ccc(F)cc4)CC3)c(=O)c2c1C | inconclusive [inhibitor, full curve, poor fit] | 
N#Cc1nc(-c2ccco2)oc1NCCc1ccccc1 |  | inactive: 6.27%
O=C(NCc1ccccc1F)Nc1ccc([N+](=O)[O-])cc1 | inconclusive [inhibitor, single point] | 
CN(CC(=O)Nc1cccc(F)c1)C(=O)/C=C/c1ccc(Br)s1 | inconclusive [inhibitor, partial curve, poor fit] | 
COc1cc(OC)c(S(=O)(=O)Nc2ccc(C)cn2)cc1NC(C)=O |  | inactive: 0.754%
O=C1C2CCCCN2C(=O)N1CCCCN1CCN(c2cccc(Br)c2)CC1 (configuration not stated) | inconclusive [inhibitor, partial curve, poor fit] | 
CCC(Oc1ccccc1)C(=O)N1CCN(Cc2cc(=O)n3nc(-c4cccc(C)c4)sc3n2)CC1 (configuration not stated) | inconclusive [inhibitor, partial curve, poor fit] | 

Compound | Potency | activity change, negative = inhibition
COc1ccc(-c2cc(-c3cc(OC)ccc3O)[nH]n2)cc1 | inconclusive [inhibitor, single point] | 
COc1cccc(CNCc2ccc(OC)c3ccccc23)c1OC |  | inconclusive: -89.6% [inhibitor]
NC(=O)C1CCN(C2=C(Cl)C(=O)c3ccccc3C2=O)CC1 | inconclusive [inhibitor, single point] | 
CC(Sc1cccc[n+]1[O-])c1ccccc1 (configuration not stated) | inconclusive [inhibitor, partial curve, poor fit] | 
Cc1ccc(Nc2nc(-c3c(C)n(C)n(-c4ccccc4)c3=O)c(C)s2)cc1 | inconclusive [inhibitor, partial curve, poor fit] | 
Brc1ccc(C2C3=C(Nc4ncnn42)c2ccccc2OC3c2ccncc2)cc1 (configuration not stated) | inconclusive [inhibitor, single point] | 
CC(=O)C1=C(O)CC(C)(C)CC1=NCc1nc2ccccc2[nH]1 | inconclusive [inhibitor, single point] | 
O=[N+]([O-])/C(C=Nc1ccccc1O)=C\Nc1ccccc1O | inconclusive [inhibitor, single point] | 
C=CCN1C(=O)[C@@H]2Cc3c([nH]c4ccccc34)C(c3ccc(O)cc3)N2C1=S (some centres not stated) | inconclusive [inhibitor, single point] | 
Cc1cc(NCCN(C)C)n2nc(-c3cccs3)cc2n1 |  | inactive: 4.32%
O=C(CSc1nc2ccc(Cl)cc2[nH]1)NCCc1ccccc1 | inconclusive [inhibitor, partial curve, poor fit] | 
COc1cccc(-c2ccc3c(N)c(C(=O)c4ccc(F)cc4)sc3n2)c1 | inconclusive [inhibitor, single point] | 
CCC(=O)Nc1cccc(NC(=O)c2cc3ccccc3o2)c1 |  | inactive: 0.829%
CCOc1ccc(NC(=O)CSc2nnnn2C2CC2)cc1S(=O)(=O)N1CCCC1 |  | inactive: 3.05%
Cc1ccc(N(CC(O)CN2CCCCC2)S(=O)(=O)c2ccccc2[N+](=O)[O-])cc1 (configuration not stated) |  | inactive: -27.6% [at 7.66 µM]
COc1cccc(NC(=O)C(NC2CCCC2)c2ccccc2)c1 (configuration not stated) | inconclusive [inhibitor, partial curve, poor fit] | 
CN(C)c1ccc(C(C[N+](=O)[O-])c2c(N)n(C)c(=O)n(C)c2=O)c(F)c1C#N (configuration not stated) | inconclusive [inhibitor, partial curve, poor fit] | 
CCN(c1cccc(C)c1)S(=O)(=O)c1ccc2c(c1)NC(=O)CS2 | inconclusive [inhibitor, single point] | 
COc1cc(/C=N/N=C(/N)c2nonc2N)cc(Br)c1OCc1ccccc1C | inconclusive [inhibitor, single point] | 
Cc1c(NC(=O)c2cnn3c2NC(c2ccccc2)CC3C(F)(F)F)c(=O)n(-c2ccccc2)n1C (configuration not stated) | inconclusive [inhibitor, full curve, poor fit] | 
Cc1c(C(=O)NCc2cccc(C(F)(F)F)c2)sc(=O)n1Cc1cccc(F)c1 | inconclusive [inhibitor, partial curve, poor fit] | 

Compound | Potency | activity change, negative = inhibition
Cc1cn([C@@H](CCCCNC(=O)OC(C)(C)C)C(=O)NCCCCCCCCCCC(=O)N2CCN(C(=O)OC(C)(C)C)CC2)nn1 | inconclusive [inhibitor, single point] | 
COc1ccc(-c2cc(C3CC3)nc(SCC(=O)c3cccs3)c2C#N)cc1 | inconclusive [inhibitor, full curve, poor fit] | 
O=C(COc1ccc(Cl)cc1)NCCSCc1cccc(Cl)c1 | inconclusive [inhibitor, partial curve, poor fit] | 
COc1ccc(-c2c[n+]3c(n2-c2ccccc2)CCCCC3)cc1 | inconclusive [inhibitor, partial curve, poor fit] | 
Cn1c(-c2ccsc2)c(-c2cccs2)c2cc(Br)ccc21 | inconclusive [inhibitor, single point] | 
C/C(=N\NC(=S)NCCc1ccccc1)c1cccc(Br)c1 |  | inactive: -16.6%
CCOc1ccc(-n2ccnc(SCC(=O)Nc3ccc(OC)cc3OC)c2=O)cc1 | inconclusive [inhibitor, partial curve, poor fit] | 
CN=C1NC(C)(C)C2CCC(C)(CC2)S1 | inconclusive [inhibitor, full curve, poor fit] | 
CCCCNc1nnc(SCC(=O)c2c[nH]c3ccccc23)s1 | inconclusive [inhibitor, single point] | 
CCOc1ccccc1NC(=O)C1CCCN1S(=O)(=O)c1ccc2nc(-c3ccccc3)[nH]c2c1 (configuration not stated) | inconclusive [inhibitor, partial curve, poor fit] | 
CN(C)C(=S)N=c1ssc(=S)n1Cc1ccccc1 | inconclusive [inhibitor, full curve, poor fit] | 
CC1CC(N(C(=O)c2ccc(Cl)cc2)c2ccccc2)c2ccccc2N1C(=O)c1ccco1 (configuration not stated) | inconclusive [inhibitor, partial curve, poor fit] | 
CC(=O)NC1=NN(C(C)=O)C(C)(c2ccc(Cl)s2)S1 (configuration not stated) | inconclusive [inhibitor, partial curve] | 
O=C(NCc1ccccn1)c1ccc(OC2CCN(Cc3ccc(Cl)s3)CC2)cc1 | inconclusive [inhibitor, partial curve, poor fit] | 
CN(C)CCC=C1c2ccccc2C=Cc2ccccc21 | inconclusive [inhibitor, partial curve, poor fit] | 
O=C(CSc1nnc(-c2ccccc2O)n1Cc1ccccc1)NNC(=O)c1ccccc1O | inconclusive [inhibitor, single point] | 
COc1ccc(C2CC(c3ccccc3)=NN2c2ccc(/C=N/NC(=O)c3ccncc3)cc2)cc1 (configuration not stated) | inconclusive [inhibitor, single point] | 
CN(C)c1ccc(CNC(=O)C2COc3ccccc3C2)cc1 (configuration not stated) |  | inactive: -13.6%
O=C(CSc1ncccc1C(=O)Oc1ccccc1Cl)Nc1ccccc1Cl | inconclusive [inhibitor, partial curve] | 
Cc1cc(C)cc(C(=O)NC(CC(N)=O)c2ccc(N3CCC(Cc4ccccc4)CC3)c([N+](=O)[O-])c2)c1 (configuration not stated) | inconclusive [inhibitor, single point] | 
